In the supplement of paper PMC3334620:
In all, about 33,000 sequences were measured (“E-score (-0.5 to 0.5)”: median about -0.012, highest 2% from about 0.29 on). The list shows a part of the results.

biological target: T1, Ybr033w (UniProt P38073); assay: PBM E-score (8-mer binding enrichment) (E-score (-0.5 to 0.5)); higher = stronger / more preferred TF binding; most listed sequences are background and not binding sites; conditions: protein concentration: 200 nM; construct: GST-full length
T1 sequence: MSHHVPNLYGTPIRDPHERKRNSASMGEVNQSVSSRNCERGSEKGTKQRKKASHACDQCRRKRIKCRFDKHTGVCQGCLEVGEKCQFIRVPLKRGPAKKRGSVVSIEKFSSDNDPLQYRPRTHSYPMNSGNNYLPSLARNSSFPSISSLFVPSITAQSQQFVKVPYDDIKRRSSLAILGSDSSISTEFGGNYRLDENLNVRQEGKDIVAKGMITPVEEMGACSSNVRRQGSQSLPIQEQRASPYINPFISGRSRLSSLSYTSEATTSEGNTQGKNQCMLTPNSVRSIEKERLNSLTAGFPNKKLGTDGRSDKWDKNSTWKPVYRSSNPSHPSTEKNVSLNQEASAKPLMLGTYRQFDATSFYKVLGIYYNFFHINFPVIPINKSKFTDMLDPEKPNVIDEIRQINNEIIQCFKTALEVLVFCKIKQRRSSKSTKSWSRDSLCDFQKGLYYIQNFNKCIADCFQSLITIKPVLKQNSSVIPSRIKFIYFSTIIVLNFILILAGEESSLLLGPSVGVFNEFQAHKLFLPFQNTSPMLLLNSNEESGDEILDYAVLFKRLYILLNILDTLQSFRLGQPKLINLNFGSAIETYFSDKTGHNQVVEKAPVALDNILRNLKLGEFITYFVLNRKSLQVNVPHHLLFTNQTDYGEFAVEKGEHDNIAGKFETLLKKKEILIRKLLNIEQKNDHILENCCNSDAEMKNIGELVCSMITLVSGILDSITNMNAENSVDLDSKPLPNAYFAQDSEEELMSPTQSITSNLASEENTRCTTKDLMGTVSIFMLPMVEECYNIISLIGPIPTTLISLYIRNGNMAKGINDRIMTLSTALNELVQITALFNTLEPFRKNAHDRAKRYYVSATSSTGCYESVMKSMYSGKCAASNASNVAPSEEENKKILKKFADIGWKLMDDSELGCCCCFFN
In short: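 Using PURExpress in vitro transcription/translation, GST-tagged yeast transcription factors were made in full-length or DNA-binding-domain form. These were applied at about 100-200 nM to double-stranded universal all-10-mer Agilent arrays, and bound protein was detected with fluorescent anti-GST. Scans were normalised with masliner before the Universal PBM Analysis Suite assigned E-scores to ungapped eight-base words pooled with their reverse complements.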

Going from ATTAACGA to ACGCAATG, the “PBM E-score” value falls from 0.283 to 0.0098.

First: CGGCCATA
Second: ATAGCACC
The “PBM E-score” value of the first is lower: -0.17 for the first, -0.0174 for the second.

Going from CGCCATAG to CAGAGTCG, the “PBM E-score” value rises from -0.227 to -0.191.

First: CAGCATAG
Second: ATGTAAAG
The “PBM E-score” value of the first is lower: -0.0334 for the first, 0.074 for the second.

First: AGGTCTTA
Second: GAGACCTC
The “PBM E-score” value of the first is lower: -0.105 for the first, -0.0928 for the second.

First: CACGGTGA
Second: CTCGGCGC
The “PBM E-score” value of the first is higher: 0.0391 for the first, 0.0178 for the second.

Compared with ACCTCGCA, AACAGCAA is higher in “PBM E-score” value: -0.136 for the first, 0.238 for the second.

First: CGCCAAGC
Second: ACACACGC
The “PBM E-score” value of the first is lower: -0.295 for the first, -0.0211 for the second.

First: AACCGTGA
Second: CTTACCCC
The “PBM E-score” value of the first is higher: -0.093 for the first, -0.339 for the second.

Compared with ACTTGTTG, CTCAGAAA is lower in “PBM E-score” value: 0.0271 for the first, 0.0132 for the second.

Going from AAGAGACG to AGTACGCA, the “PBM E-score” value rises from -0.0648 to -0.0488.

First: CGGCTCTA
Second: CAGACTAA
The “PBM E-score” value of the first is lower: -0.0755 for the first, -0.0508 for the second.

Compared with AAGGAGTG, ATGTACCG is higher in “PBM E-score” value: -0.00953 for the first, 0.0208 for the second.

Going from ACCAATAT to AAGGAGGC, the “PBM E-score” value falls from 0.261 to -0.226.

Compared with ATAGAATA, CAAGACCA is lower in “PBM E-score” value: 0.248 for the first, -0.0729 for the second.

First: CCCCCTCG
Second: GTCTGCTA
The “PBM E-score” value of the first is lower: -0.32 for the first, 0.0776 for the second.

First: ATTATGGG
Second: CATGACGC
The “PBM E-score” value of the first is higher: -0.0375 for the first, -0.176 for the second.

First: ACTTCTGC
Second: AAGATATA
The “PBM E-score” value of the first is lower: 0.076 for the first, 0.323 for the second.

Compared with ATCTATCA, CCTGTGTA is lower in “PBM E-score” value: 0.302 for the first, 0.112 for the second.

Compared with CTGCAACA, AGAGCAAA is lower in “PBM E-score” value: 0.104 for the first, 0.00797 for the second.

Compared with CCAAGAGG, CAGGAGAG is lower in “PBM E-score” value: -0.0521 for the first, -0.0582 for the second.

Going from AGGGTGTC to AGAGATAC, the “PBM E-score” value rises from -0.186 to 0.0158.

First: GTACGTAC
Second: GCAAAACA
The “PBM E-score” value of the first is lower: -0.00634 for the first, 0.0364 for the second.

First: GTCATTCA
Second: AATACTAT
The “PBM E-score” value of the first is lower: 0.155 for the first, 0.231 for the second.

First: CCCTCGAC
Second: ACCCGTAA
The “PBM E-score” value of the first is lower: -0.246 for the first, 0.0246 for the second.

Going from CGCGGGGA to CGTCGGCC, the “PBM E-score” value rises from -0.236 to -0.0879.

Going from ATGACAAG to GACTTGGC, the “PBM E-score” value falls from -0.0461 to -0.1.

First: GAGCCTTA
Second: CGCATTAC
The “PBM E-score” value of the first is lower: -0.0865 for the first, 0.0602 for the second.

Going from GCTGCACC to GAGGCCGC, the “PBM E-score” value rises from -0.242 to -0.219.

Compared with AACTGTAA, CCCGGAAC is lower in “PBM E-score” value: 0.226 for the first, -0.0597 for the second.

Going from ATCTCATA to AGAGCTTA, the “PBM E-score” value falls from 0.0709 to 0.0318.

Going from CTACCATC to CGGACCCG, the “PBM E-score” value falls from -0.048 to -0.24.

First: CGGGCTTA
Second: ACCTCATC
The “PBM E-score” value of the first is higher: -0.139 for the first, -0.146 for the second.

Going from AAAAGAGC to CGTAACTA, the “PBM E-score” value rises from -0.0295 to 0.194.

Compared with ATGTAGGA, ATCGACAT is higher in “PBM E-score” value: -0.1 for the first, 0.0755 for the second.

Going from CGGTTTTC to AGTATATC, the “PBM E-score” value rises from 0.13 to 0.213.

First: CGTTCGGC
Second: GGCTACCC
The “PBM E-score” value of the first is higher: -0.0341 for the first, -0.351 for the second.

First: GGATCCGA
Second: ATTATCTA
The “PBM E-score” value of the first is lower: -0.013 for the first, 0.233 for the second.

Compared with ACCCGGAC, AAAAAACA is higher in “PBM E-score” value: -0.0659 for the first, 0.242 for the second.

Going from GTTATGCA to GACATGTC, the “PBM E-score” value falls from 0.0477 to -0.193.

Compared with GAAGGCGA, ATCATACC is higher in “PBM E-score” value: -0.0975 for the first, 0.0727 for the second.

Compared with ATATACTA, CCTGCCTA is lower in “PBM E-score” value: 0.243 for the first, -0.0166 for the second.

First: AGTTGTTG
Second: CAGAGCGG
The “PBM E-score” value of the first is higher: 0.123 for the first, -0.107 for the second.

Going from CCCGTGTA to CCTGAGAA, the “PBM E-score” value rises from 0.0512 to 0.0675.

Compared with TCAGTCGA, AAGAAACG is lower in “PBM E-score” value: 0.128 for the first, 0.0616 for the second.

Compared with GTCGCCTA, AGCGAGCA is higher in “PBM E-score” value: -0.138 for the first, -0.0357 for the second.

Going from CCACGGAC to CGAGCCAA, the “PBM E-score” value rises from -0.338 to -0.135.

Compared with CTCGCTCC, AAATCAAC is higher in “PBM E-score” value: -0.141 for the first, 0.108 for the second.

Going from ACACCAGG to AATACGCA, the “PBM E-score” value falls from -0.00768 to -0.0366.

Going from ACGCGGGC to AGGTATTC, the “PBM E-score” value rises from -0.131 to 0.114.

First: CAAGTCCC
Second: GTGGGACA
The “PBM E-score” value of the first is higher: -0.126 for the first, -0.189 for the second.

Going from ATGTCCAC to ATCCTATA, the “PBM E-score” value rises from 0.00091 to 0.137.

Compared with CACTGAAA, GACCGTAC is lower in “PBM E-score” value: 0.00244 for the first, -0.301 for the second.

First: CGATAATC
Second: ACGTCACC
The “PBM E-score” value of the first is higher: 0.0636 for the first, -0.083 for the second.

Going from ACCTTCAC to ATATTATC, the “PBM E-score” value rises from -0.0347 to 0.265.

Going from GCAAGGGA to GATTACAC, the “PBM E-score” value rises from -0.00383 to 0.131.

Going from AGCGGGTG to CATAGCCA, the “PBM E-score” value rises from -0.11 to 0.0385.

First: AGTCGCTA
Second: CTAGGCCC
The “PBM E-score” value of the first is higher: -0.0247 for the first, -0.332 for the second.

Going from AGCTGTGG to CGCTGTTC, the “PBM E-score” value rises from -0.22 to -0.199.

Compared with CTGTTTGA, GACTTCGC is lower in “PBM E-score” value: 0.135 for the first, -0.0815 for the second.

Compared with AGTCCCTG, CCCTAGAC is lower in “PBM E-score” value: -0.097 for the first, -0.16 for the second.

First: AATGTAGG
Second: AGTTTTAA
The “PBM E-score” value of the first is lower: -0.163 for the first, 0.268 for the second.

Compared with AGGCTACG, GCGCGAAA is higher in “PBM E-score” value: -0.266 for the first, 0.11 for the second.

First: ACCGAACG
Second: GCTCGGAA
The “PBM E-score” value of the first is lower: -0.0975 for the first, 0.037 for the second.

Going from CCTAAACG to GCTCCCTA, the “PBM E-score” value falls from 0.00042 to -0.286.

Going from GTAAAAAC to CAAATCCC, the “PBM E-score” value falls from 0.198 to -0.111.

First: CATATCCA
Second: AACAGGCT
The “PBM E-score” value of the first is lower: -0.144 for the first, -0.038 for the second.

First: CACAAGAC
Second: CTGTCCGA
The “PBM E-score” value of the first is higher: -0.159 for the first, -0.165 for the second.

Compared with ATGGATCA, CCTGTGGC is lower in “PBM E-score” value: 0.0922 for the first, -0.324 for the second.

Compared with AAGCCTGG, CAGAACAC is lower in “PBM E-score” value: -0.0832 for the first, -0.146 for the second.

Going from GCGCTAGA to TAACTCTA, the “PBM E-score” value rises from -0.0551 to -0.0542.

First: TCGCTAGA
Second: AAGGTTCA
The “PBM E-score” value of the first is lower: -0.0659 for the first, 0.0886 for the second.

Going from TGGCTTAA to AGCACAGC, the “PBM E-score” value falls from 0.133 to 0.0732.

Compared with AAGAGTAT, AGGCCGAC is lower in “PBM E-score” value: 0.00192 for the first, -0.249 for the second.

Compared with TTGGCCAA, GGTACCAC is higher in “PBM E-score” value: -0.211 for the first, -0.111 for the second.

First: ATTTGGCG
Second: AGACTCGA
The “PBM E-score” value of the first is higher: 0.01 for the first, -0.0387 for the second.

First: ATAGTACC
Second: CTCGGCTA
The “PBM E-score” value of the first is higher: 0.174 for the first, -0.153 for the second.

First: CTCTGGAC
Second: GCATAAGA
The “PBM E-score” value of the first is lower: -0.112 for the first, 0.086 for the second.

Compared with AATACCAC, ATTGCCAG is lower in “PBM E-score” value: 0.119 for the first, 0.0394 for the second.

First: AAGTCAGC
Second: AGCACTGC
The “PBM E-score” value of the first is lower: -0.0231 for the first, -0.022 for the second.

Compared with AAATTTTG, AATTTCGG is higher in “PBM E-score” value: 0.184 for the first, 0.196 for the second.

First: ACTGTCCT
Second: GCTTCTCC
The “PBM E-score” value of the first is higher: -0.074 for the first, -0.31 for the second.

First: TTCGCCAA
Second: CTGGTACC
The “PBM E-score” value of the first is higher: -0.127 for the first, -0.319 for the second.

Going from ATGCGGAC to CGTCAATA, the “PBM E-score” value rises from -0.244 to 0.00608.

Compared with CATCGGCG, ACAGTGAC is higher in “PBM E-score” value: -0.201 for the first, -0.068 for the second.

Going from ACACTCTG to ATAGCGCG, the “PBM E-score” value rises from 0.007 to 0.0995.
